Data reported in the supplement of paper PMC12067230.
This is a noisy data set.

Assay: amyloid nucleation score relative to library mode (yeast Sup35 reporter selection) (log enrichment difference); higher = more amyloid nucleation; sequences are the first 22 residues of the Bri2 peptide extended by up to 12 random residues
Conditions: random library (experiment): 1;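 active = nucleation score significantly above 0 at FDR 0.05; inactive = not significantly above 0 or absent from output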
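Also: [psi-pin-] Saccharomyces cerevisiae expressing SupN fusions, induced by 100 µM Cu2SO4, selected 7 d at 30 °C without adenine and uracil, scored by deep sequencing of output versus input.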

Sequence | amyloid nucleation score
EASNCFAIRHFENKFAVETLICMSTVDSRSRKMG | inactive
EASNCFAIRHFENKFAVETLICDLSMVLMSTKML | inactive
EASNCFAIRHFENKFAVETLICCRKERVVWVAPW | inactive
EASNCFAIRHFENKFAVETLICVTGSTHSEMHTG | inactive
EASNCFAIRHFENKFAVETLICVRCYRVDRSSSA | inactive
EASNCFAIRHFENKFAVETLICRMVTYG | inactive
EASNCFAIRHFENKFAVETLICYTFTGSVFRASR | 4.26
EASNCFAIRHFENKFAVETLICEDNFSIIHALAY | inactive
EASNCFAIRHFENKFAVETLICRDGNGR | 0.335
EASNCFAIRHFENKFAVETLICGTKVLECRGVLV | inactive
EASNCFAIRHFENKFAVETLICRATGYACSGTGR | inactive
EASNCFAIRHFENKFAVETLICFPLKGGWKVCPG | 5.47
EASNCFAIRHFENKFAVETLICIHVRMFERYL | 1.38
EASNCFAIRHFENKFAVETLICATRRPGSGLCGD | 0.103
EASNCFAIRHFENKFAVETLICWHLATVQRSKWG | inactive
EASNCFAIRHFENKFAVETLICFVQSSLEMSSGS | 7.49
EASNCFAIRHFENKFAVETLICFSY | 3.34
EASNCFAIRHFENKFAVETLICVMVCWKPADCNP | inactive
EASNCFAIRHFENKFAVETLICFVWGVRSTVVGK | 4.66
EASNCFAIRHFENKFAVETLICGRATGLSWWVSV | -0.203
EASNCFAIRHFENKFAVETLICVCRAALMLEVGP | inactive
EASNCFAIRHFENKFAVETLICWL | 7.26
EASNCFAIRHFENKFAVETLICEDMRVHLHYSRW | inactive
EASNCFAIRHFENKFAVETLICGLSGTTNSSRCT | inactive
EASNCFAIRHFENKFAVETLICGFSGFGG | 3.63

Sequence | amyloid nucleation score
EASNCFAIRHFENKFAVETLICPHCVRFRSDPVN | 0.618
EASNCFAIRHFENKFAVETLICVVVGERCNASCS | 4.4
EASNCFAIRHFENKFAVETLICRR | 0.0191
EASNCFAIRHFENKFAVETLICRRRQETSWVGDR | -0.029
EASNCFAIRHFENKFAVETLICVPGKH | inactive
EASNCFAIRHFENKFAVETLICLVWSSWGTLATR | inactive
EASNCFAIRHFENKFAVETLICVYDYGSGKADVL | 0.627
EASNCFAIRHFENKFAVETLICVAD | inactive
EASNCFAIRHFENKFAVETLICGDCRGTACAGCK | inactive
EASNCFAIRHFENKFAVETLICGGSLKWL | -0.0385
EASNCFAIRHFENKFAVETLICFFSMLGSKHFRT | inactive
EASNCFAIRHFENKFAVETLICTYSSN | inactive
EASNCFAIRHFENKFAVETLICRASYAAGTGTMK | -0.12
EASNCFAIRHFENKFAVETLICRVASDCAWPEGD | inactive
EASNCFAIRHFENKFAVETLICGLKCMYLADM | -0.45
EASNCFAIRHFENKFAVETLICNFSRWFRSRTYR | inactive
EASNCFAIRHFENKFAVETLICTLKIYSNPSRHL | 6.05
EASNCFAIRHFENKFAVETLICDAL | inactive
EASNCFAIRHFENKFAVETLICHQMVQGRRGDTL | 2.64
EASNCFAIRHFENKFAVETLICVCTGRGVPHCNG | 4.18
EASNCFAIRHFENKFAVETLICGVGSRCRLPSWR | inactive
EASNCFAIRHFENKFAVETLICGYR | 0.609
EASNCFAIRHFENKFAVETLICHSS | inactive
EASNCFAIRHFENKFAVETLICHFTRVFFLRFAL | inactive
EASNCFAIRHFENKFAVETLICAVKY | inactive

Same assay, conditions: random library (experiment): 2

Sequence | amyloid nucleation score
EASNCFAIRHFENKFAVETLICYCWLYRVDRGFT | inactive
EASNCFAIRHFENKFAVETLICLIWVLHVNSILT | inactive
EASNCFAIRHFENKFAVETLICIPMQCAVVMQ | 5.17
EASNCFAIRHFENKFAVETLICVKCTFRILITCT | inactive
EASNCFAIRHFENKFAVETLICLMF | 7.62
EASNCFAIRHFENKFAVETLICAGQRCWGSFRAE | 2.31
EASNCFAIRHFENKFAVETLICWGYPSRRQLLKW | 5.33
EASNCFAIRHFENKFAVETLICLYMAWVSNRCIG | inactive
EASNCFAIRHFENKFAVETLICPYSNKFEYSSGS | inactive
EASNCFAIRHFENKFAVETLICALLGEWDSELIT | inactive
EASNCFAIRHFENKFAVETLICFEM | 4.46
EASNCFAIRHFENKFAVETLICHTSMFIRKEEDR | 1.08
EASNCFAIRHFENKFAVETLICGYSCKTTLMVVT | 0.494
EASNCFAIRHFENKFAVETLICIV | inactive
EASNCFAIRHFENKFAVETLICVLDSICFASFRY | 0.607
EASNCFAIRHFENKFAVETLICVLNLTCDFASMK | 5.8
EASNCFAIRHFENKFAVETLICLVLMLVIFVRNG | inactive

Sequence | amyloid nucleation score
EASNCFAIRHFENKFAVETLICQCKLDLVYPGLC | 2.22
EASNCFAIRHFENKFAVETLICDVSAL | 6.55
EASNCFAIRHFENKFAVETLICCSNRSNNCRNMS | 4.42
EASNCFAIRHFENKFAVETLICKPS | 6.01
EASNCFAIRHFENKFAVETLICYLL | 7.56
EASNCFAIRHFENKFAVETLICQC | 0.693
EASNCFAIRHFENKFAVETLICRNVG | inactive
EASNCFAIRHFENKFAVETLICLIRDYLDLGAYR | 0.545
EASNCFAIRHFENKFAVETLICCFSLLTFATPWL | inactive
EASNCFAIRHFENKFAVETLICDEEKRGQ | inactive
EASNCFAIRHFENKFAVETLICGLIL | 7.15
EASNCFAIRHFENKFAVETLICPDLLDNCYLLLI | -0.668
EASNCFAIRHFENKFAVETLICDTFFGQTRGQLH | 7.15
EASNCFAIRHFENKFAVETLICDSFCMCGIWSWW | inactive
EASNCFAIRHFENKFAVETLICIKNRGDV | 1.89
EASNCFAIRHFENKFAVETLICCFAFFMCCISSM | inactive

Same assay, conditions: random library (experiment): 3

Sequence | amyloid nucleation score
EASNCFAIRHFENKFAVETLICVVINCRGREVWI | 2.11
EASNCFAIRHFENKFAVETLICDMRVKYIFYKVS | inactive
EASNCFAIRHFENKFAVETLICDGHPIK | inactive
EASNCFAIRHFENKFAVETLICARVSETFGLFGV | inactive
EASNCFAIRHFENKFAVETLICCLISRNTFFCLG | 5.74
EASNCFAIRHFENKFAVETLICRIIVSFRNLRFE | inactive
EASNCFAIRHFENKFAVETLICNVV | inactive
EASNCFAIRHFENKFAVETLICWARLGSA | inactive
EASNCFAIRHFENKFAVETLICVSWLVYRSIIRV | inactive
EASNCFAIRHFENKFAVETLICPGWKRMKSVRGA | inactive
EASNCFAIRHFENKFAVETLICRYGFRHGDFFAL | inactive
EASNCFAIRHFENKFAVETLICCLQE | 6.16
EASNCFAIRHFENKFAVETLICPRCLPDGKESYT | inactive
EASNCFAIRHFENKFAVETLICDFMKLMYRVAWG | inactive
EASNCFAIRHFENKFAVETLICLKVVQCSNGTDA | 6.48
EASNCFAIRHFENKFAVETLICGHYMCCSISCAL | 5.63
EASNCFAIRHFENKFAVETLICLLRFKGIMSSVA | inactive
EASNCFAIRHFENKFAVETLICWWMK | inactive
EASNCFAIRHFENKFAVETLICACQECRRSHDPV | 6.77

Sequence | amyloid nucleation score
EASNCFAIRHFENKFAVETLICMCKGVEGTNRLT | 4.96
EASNCFAIRHFENKFAVETLICGWRGERLWLKAQ | inactive
EASNCFAIRHFENKFAVETLICYTCRCKVSHKVL | inactive
EASNCFAIRHFENKFAVETLICLRTVMVALLRIT | inactive
EASNCFAIRHFENKFAVETLICISKCNGVKVFAE | 6.84
EASNCFAIRHFENKFAVETLICGSPSVQTTEFER | inactive
EASNCFAIRHFENKFAVETLICCYRCMDLDSGWT | 5.9
EASNCFAIRHFENKFAVETLICFHR | 3.08
EASNCFAIRHFENKFAVETLICVEVCWDLGAWSE | inactive
EASNCFAIRHFENKFAVETLICWCASCDDLWVKG | 6.49
EASNCFAIRHFENKFAVETLICFATDGEFYKSSL | 2.11
EASNCFAIRHFENKFAVETLICNIDLFVILNLSE | 7.51
EASNCFAIRHFENKFAVETLICPRACRNVARTVL | inactive
EASNCFAIRHFENKFAVETLICTTVGPCKKRFER | inactive
EASNCFAIRHFENKFAVETLICTYYVWSDYVLYV | inactive
EASNCFAIRHFENKFAVETLICFLFTC | 7.19
EASNCFAIRHFENKFAVETLICQPLH | inactive
EASNCFAIRHFENKFAVETLICAPWTLLARWVLE | 5.07
EASNCFAIRHFENKFAVETLICRTGRPWLRITNV | inactive
